# Paper PMC4336329 (PLoS ONE, 2015)
# The campaign covered roughly 310,000 compounds. About 14,000 (4.5%) showed an effect of 50% or more. The effect is printed as a negative number. The list shows a part of the results.
# Target: human ether-à-go-go-related gene (hERG) potassium channel (human, UniProt Q12809)
# Assay: primary screen, population patch clamp on CHO cells stably expressing hERG
# 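Note: peak tail current of the secondary pulse compared with the same well before compound.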
# Sequence of human ether-à-go-go-related gene (hERG) potassium channel (Q12809 whole entry, looked up): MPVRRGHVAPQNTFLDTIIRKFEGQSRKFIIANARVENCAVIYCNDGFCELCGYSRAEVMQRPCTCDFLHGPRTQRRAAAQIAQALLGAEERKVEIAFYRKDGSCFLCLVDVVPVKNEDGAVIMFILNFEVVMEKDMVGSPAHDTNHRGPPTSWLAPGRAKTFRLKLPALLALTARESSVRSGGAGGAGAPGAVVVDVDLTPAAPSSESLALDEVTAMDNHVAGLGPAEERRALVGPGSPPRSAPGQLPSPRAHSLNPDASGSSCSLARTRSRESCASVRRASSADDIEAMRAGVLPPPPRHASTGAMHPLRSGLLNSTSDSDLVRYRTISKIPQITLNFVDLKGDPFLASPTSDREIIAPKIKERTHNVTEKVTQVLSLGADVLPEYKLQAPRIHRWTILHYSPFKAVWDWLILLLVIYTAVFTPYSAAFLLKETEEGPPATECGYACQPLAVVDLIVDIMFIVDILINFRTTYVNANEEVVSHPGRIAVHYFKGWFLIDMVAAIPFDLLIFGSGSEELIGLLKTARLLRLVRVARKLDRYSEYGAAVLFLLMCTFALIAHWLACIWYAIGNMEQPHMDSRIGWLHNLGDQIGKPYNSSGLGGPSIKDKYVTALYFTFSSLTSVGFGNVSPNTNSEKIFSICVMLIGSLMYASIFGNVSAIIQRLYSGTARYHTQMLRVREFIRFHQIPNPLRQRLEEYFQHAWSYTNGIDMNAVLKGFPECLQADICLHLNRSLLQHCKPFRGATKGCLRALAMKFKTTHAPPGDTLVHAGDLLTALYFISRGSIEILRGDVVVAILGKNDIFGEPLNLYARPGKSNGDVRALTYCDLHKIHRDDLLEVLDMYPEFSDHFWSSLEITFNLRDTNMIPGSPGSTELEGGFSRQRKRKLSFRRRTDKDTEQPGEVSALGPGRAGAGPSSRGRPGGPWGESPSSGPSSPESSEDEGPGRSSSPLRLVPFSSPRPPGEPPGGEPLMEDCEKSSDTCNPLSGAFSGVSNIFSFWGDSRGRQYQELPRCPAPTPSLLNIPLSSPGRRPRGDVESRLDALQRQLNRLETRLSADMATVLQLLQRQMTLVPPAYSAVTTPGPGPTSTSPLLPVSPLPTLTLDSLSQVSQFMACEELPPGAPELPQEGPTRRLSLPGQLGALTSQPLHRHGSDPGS
row,Structure (SMILES),"hERG current change (%, negative = inhibition) at 10uM"
1,O=C(O)c1ccccc1.OC(CNCC1CCCO1)Cn1c2ccccc2c2ccccc21 (centres unmarked),-27.4%
2,CCc1cccc(C)c1NC(=S)NCc1ccc2c(c1)cc(C)n2C,1.32%
3,CC(=O)N1C(=O)C2(C(C#N)=C(N)Oc3c2c(C)nn3-c2ccccc2)c2ccccc21 (centres unmarked),0.479%
4,Cc1cc(C)c(NC(=O)CCCN2CCCC2)c(C)c1,27.1%
5,COc1ccccc1CNS(=O)(=O)c1ccc2c(c1)CC(C)N2C(=O)C1CCC1 (centres unmarked),-10.1%
6,CC(C)(C)NC(=O)COC(=O)c1ccc(O)cc1,4.51%
7,CCOc1nc(Nc2ccc(OC)c(Cl)c2)nc(OCC)n1,-8.68%
8,COc1ccc(Nc2nc(N3CCN(C)CC3)nc3ccccc23)c(OC)c1,-75.4%
9,COc1ccc(C(=O)C(OC(=O)c2ccccc2Cl)c2ccccc2)cc1 (centres unmarked),-0.748%
10,COc1ccccc1/C=c1\sc2nc(-c3ccccc3OC)nn2c1=O,3.75%
11,O=C1OC2(CCCCC2)OC(=O)C1=CNc1nc2ccccc2s1,9.83%
12,CN(C)S(=O)(=O)c1ccc(C(=O)NCC(C)(C)N2CCOCC2)cc1,12.6%
13,COC(=O)c1ccc(CN2C(=O)C3CCCCC3C2=O)o1 (centres unmarked),5.81%
14,CSc1nnc2c(n1)OC(C)=Nc1ccccc1-2,-6.12%
15,CC(C)(C)c1ccc(OCC(O)CN2CCCC2)cc1.Cl (centres unmarked),-35.7%
16,COCc1cc(C)nc(NC2CC(C)(C)NC(C)(C)C2)c1C#N,12.7%
17,CCOP(=O)(OCC)c1nc(-c2cccc([N+](=O)[O-])c2)oc1N1CCCCC1,-13.4%
18,Brc1cccc(-c2nnc3sc(CN4CCC5(CC4)OCCO5)cn23)c1,-15.3%
19,CC(=O)Nc1sc(-c2ccccc2)nc1-c1ccccc1,14%

row,Structure (SMILES),"hERG current change (%, negative = inhibition) at 10uM"
1,Cc1ccc(-n2cccn2)c(CN2CCCC(C(=O)c3ccc4c(c3)OCO4)C2)c1 (centres unmarked),-77.2%
2,COC(=O)[C@@H](NC(=O)NC1CCN(Cc2ccccc2)CC1)C(C)C,15.2%
3,CCCCNC(=O)Nc1ccc(Br)cn1,-16.2%
4,Cl.O=S(=O)(NCCCN1CCOCC1)c1ccc(F)c(Cl)c1,-3.74%
5,O=C(CN(c1ccccc1)S(=O)(=O)c1ccccc1)N1CCN(Cc2ccc3c(c2)OCO3)CC1,-33.4%
6,COc1cccc(C(=O)Nc2ccc(S(=O)(=O)NCc3ccco3)cc2)c1,-28.4%
7,O=S1(=O)N=C2CCCCCN2C(c2ccc(Cl)cc2)N1 (centres unmarked),-3.14%
8,CN1CCN(C(=S)Nc2cc(S(=O)(=O)N3CCOCC3)ccc2Cl)CC1,7.53%
9,CC(C)n1c2ccccc2c2cc([N+](=O)[O-])ccc21,16.1%
10,CCOC(=O)c1ccc(NC(=O)c2ccc3c(c2)OCO3)cc1,9.64%
11,Cc1cc(C)c(S(=O)(=O)N2CCN(C(=O)c3c(C)noc3C)CC2)c(C)c1,-5.93%
12,CCN(CC)S(=O)(=O)c1ccc(Cl)c(NC(=O)CSc2cccc[n+]2[O-])c1,-13.4%
13,COC(=O)Cc1ccc(NC(=O)c2ccc(C(C)(C)C)cc2)cc1,-23.9%
14,COc1ccc(NC(=O)N2CCCC2C(=O)NCc2ccc(C)cc2)cc1 (centres unmarked),6.43%
15,O=C(Nc1nc2c(s1)CCCC2)c1ccc(N2C(=O)CCC2=O)cc1,3.59%
16,CC(C)C(=O)Nc1c(-c2ccccc2F)c(=O)c2ccccc2n1C,14.2%
17,Cc1ccc(NC(=O)c2ccc(NCc3ccc(F)cc3)nc2)cc1,14.9%
18,O=C(NC1(C(F)(F)F)NC(=O)N(C2CCCCC2)C1=O)c1ccco1 (centres unmarked),3.36%
19,COc1ccc(Nc2ccc(Cl)cc2)c(C(=O)O)c1,-7.35%

row,Structure (SMILES),"hERG current change (%, negative = inhibition) at 10uM"
1,COc1cccc(C2C(C(=O)c3cc4ccccc4o3)=C(O)C(=O)N2c2cc(C)on2)c1OC (centres unmarked),18.5%
2,O=c1c2cc(Cl)ccc2[nH]c(=S)n1Cc1ccco1,-6.86%
3,COc1cc(NS(=O)(=O)c2ccc(F)cc2)c(C(=O)O)cc1OC,15.8%
4,O=c1[nH]c(=O)n(Cc2ccco2)c2c1C(C(F)(F)F)(C(F)(F)F)N=C(c1ccco1)N2,7.54%
5,CC(C)[C@H](NC(=O)OC(C)(C)C)c1nnc(SCC(=O)Nc2ccc(Br)cc2)o1,-33%
6,Clc1cccc(-c2nc(NCc3cccnc3)c3ccccc3n2)c1,0.604%
7,Cc1ccc2nc(Cn3cc(C(F)(F)F)cc(Cl)c3=O)cc(=O)n2c1,-24.5%
8,COC(=O)c1ccccc1NC(=O)CCNC(=O)Cn1cnc2ccccc2c1=O,2.64%
9,O=C1/C(=C\c2c(NCCOCCO)nc3ccccn3c2=O)SC(=S)N1Cc1ccco1,-0.759%
10,CCC1=C/C(=C/c2sc3ccccc3[n+]2CC)CC(C)(C)C1.[I-],11.5%
11,COC(=O)C1=C(C)N(CCCC(=O)O)C(=O)NC1c1ccc(-c2ccccc2)cc1 (centres unmarked),0.876%
12,O=C(O)[C@H](Cc1ccccc1)Nc1ccc([N+](=O)[O-])cn1,14.4%
13,C/C(Cl)=C\CNC(C)c1ccccc1.Cl (centres unmarked),5.76%
14,O=C(NC(=S)Nc1cc(C(F)(F)F)ccc1N1CCOCC1)c1ccco1,3.6%
15,CCCn1c(=O)c(C(=O)OCC)c(O)c2cc(Br)ccc21,19.8%
16,O=C(/C=C/c1ccccc1)CC(O)(c1ccccc1)C(F)(F)F (centres unmarked),-13.7%
17,Cc1cccc(OCC(=O)N(Cc2cccs2)C2CCS(=O)(=O)C2)c1C (centres unmarked),-27.1%
18,COc1ccc(/C=C/C(=O)OCC(=O)NC2CCCC2)cc1,-2.45%
